The campaign covered roughly 350,000 compounds. About 260 (0.074%) were called active. The shares of active, inactive and inconclusive entries below differ from those in the screen. Calls come from the whole dose curve; as a rule, active = well fitted inhibition curve with a large enough effect; inconclusive = small, poorly fitted or top-dose-only effect; inactive = no such curve, though single readings can be large or run the other way. Where the call is inconclusive, the potency comes from a doubtful curve fit.
What follows are compounds tested against Ferritin light chain (Equus caballus) (UniProt P02791) (assay: qHTS Assay for Identification of Novel General Anesthetics). Conditions: apoferritin/1-aminoanthracene competitive binding, fluorescence; activity change, negative = displacement: at 77.5 µM (top of the series).
Chain of UniProt P02791 (P02791 whole entry, looked up): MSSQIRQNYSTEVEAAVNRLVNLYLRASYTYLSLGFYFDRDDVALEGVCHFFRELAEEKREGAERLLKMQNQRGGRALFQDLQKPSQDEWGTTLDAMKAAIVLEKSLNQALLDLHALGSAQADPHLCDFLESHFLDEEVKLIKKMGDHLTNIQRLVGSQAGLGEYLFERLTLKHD
Summary of the method: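 Probe: 1-aminoanthracene (50% saturated, PBS). Protein: horse-spleen apoferritin, 10 uM. Incubation: 10 min, room temperature. Detection: 380 nm excitation, 535 nm emission. Analysis: normalized response, four-parameter Hill.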
With `N=C1SC(c2ccccc2)C(=O)N1c1ncc(Cc2ccccc2Cl)s1` (stereo not given) the Potency was inconclusive: 50.1 µM [inhibitor, single point]. In the case of `CCc1cccc(-n2nnc(-c3nsc(NC(=O)c4cccc(OC)c4)n3)c2C)c1`, the Potency is reported as inconclusive: 14.1 µM [inhibitor, partial curve]. `CC(C)Sc1nnc(-c2c[nH]c3ccccc23)n1C` was tested, and the Potency was inconclusive: 17.8 µM [inhibitor, partial curve]. `CC1CCCC(NC(=O)COC(=O)Cc2c[nH]c3ccccc23)C1C` (stereo not given) was tested, and the Potency was inconclusive: 35.5 µM [inhibitor, partial curve]. In the case of `c1ccc(-c2ccc(C3=Nn4c(Cn5nnc6ccccc65)nnc4SC3)cc2)cc1`, the Potency is reported as inconclusive: 15.8 µM [inhibitor, partial curve]. With `Cc1ccc(C)c(NCc2ccccc2CO)c1` the Potency was inconclusive: 31.6 µM [inhibitor, partial curve]. In the case of `CC(C)N(C(=O)CSc1cn(CC(=O)N2CCCCCC2)c2ccccc12)C(C)C`, the Potency is reported as inconclusive: 35.5 µM [inhibitor, partial curve]. In the case of `Cc1ccc(S(=O)(=O)CC(=O)c2ccc(C(C)(C)C)cc2)cc1`, the Potency is reported as inconclusive: 10 µM [inhibitor, partial curve]. `CCOc1ccc(CCNC(=O)c2cn(-c3ccc(OC)cc3)c(=O)c3ccccc23)cc1OCC` was tested, and the Potency was inconclusive: 44.7 µM [inhibitor, single point]. For `CC(C)CCNCC(O)CON=C1c2ccccc2-c2ccccc21` (stereo not given), the Potency was inconclusive: 39.8 µM [inhibitor, partial curve]. For `O=Cc1ccc2c(c1)CCN2Cc1ccccc1`, the Potency was inconclusive: 22.4 µM [inhibitor, single point]. With `O=C(N/C(=C\c1ccc(Br)cc1)C(=O)N1CCCC1)c1ccccc1F` the Potency was inconclusive: 39.8 µM [inhibitor, single point]. For `CC1CCCCN1S(=O)(=O)c1ccc(NC(=O)c2ccco2)cc1` (stereo not given), the Potency was inconclusive: 17.8 µM [inhibitor, partial curve]. With `CCN(CC)S(=O)(=O)c1cccc(NC(=O)c2cc3ccccc3o2)c1` the Potency was inconclusive: 8.91 µM [inhibitor, partial curve]. In the case of `O=C1C2C3C=CC(C3)C2C(=O)N1CCCCCCN1C(=O)C2C3C=CC(C3)C2C1=O` (stereo not given), the “activity change, negative = displacement” value is reported as inactive: -17.5%. With `O=C(NC(=S)Nc1cccc2cc(O)ccc12)c1ccco1` the Potency was inconclusive: 31.6 µM [inhibitor, partial curve]. For `Cc1cc(C)cc(Oc2ccccc2CO)c1`, the Potency was inconclusive: 8.91 µM [inhibitor, partial curve]. `CC(C)(Cc1ccc(O)cc1)NC(=O)CC(=O)N/N=C/c1ccc([N+](=O)[O-])cc1` was tested, and the Potency was inconclusive: 12.6 µM [inhibitor, partial curve]. In the case of `Cc1cc(C)c2ccc(=S)[nH]c2n1`, the Potency is reported as inconclusive: 28.2 µM [inhibitor, single point]. For `O=C(Nc1ccc(F)cc1)c1ccc2c(=O)n3c(nc2c1)CCCCC3`, the Potency was inconclusive: 25.1 µM [inhibitor, single point]. For `CCCC(C)C(=O)Nc1ccc(S(=O)(=O)N2CCCC2)cc1` (stereo not given), the Potency was inconclusive: 35.5 µM [inhibitor, single point]. In the case of `CCCN(C(=O)c1ccco1)c1nnc(-c2cccc(C)c2)s1`, the Potency is reported as inconclusive: 39.8 µM [inhibitor, partial curve]. In the case of `Cc1noc(C)c1S(=O)(=O)N1CCCC(C(=O)c2cccc(OC(C)C)c2)C1` (stereo not given), the Potency is reported as inconclusive: 15.8 µM [inhibitor, partial curve]. `Cc1ccc(CSc2nnc(-c3ccncc3)o2)c(C)c1` was tested, and the Potency was inconclusive: 25.1 µM [inhibitor, single point]. In the case of `O=[N+]([O-])c1cccc(-c2ccc(SCc3ccccn3)nn2)c1`, the Potency is reported as inconclusive: 28.2 µM [inhibitor, partial curve]. `CN(C)CCNC(=O)Cn1ccc2cc(S(=O)(=O)N3CCCCCC3)ccc21` was tested, and the Potency was inconclusive: 39.8 µM [inhibitor, single point]. `CC(/C=N/n1c(C2CCCCC2)n[nH]c1=S)=C\c1ccccc1` was tested, and the Potency was inconclusive: 28.2 µM [inhibitor, partial curve]. For `Cc1cccc(OC(=O)CCN2C(=O)C3C4C=CC(C5CC45)C3C2=O)c1C` (stereo not given), the Potency was inconclusive: 35.5 µM [inhibitor, partial curve]. `CCc1ccc(-n2nc(C)c3c(C(=O)N4CCN(c5ccccc5)CC4)cc(C)nc32)cc1` was tested, and the “activity change, negative = displacement” value was inactive: -2.06%. `CC1CCCN(C2(O)C(=O)Nc3c(C(F)(F)F)cccc32)C1` (stereo not given) was tested, and the Potency was inconclusive: 56.2 µM [inhibitor, single point]. With `CCCCN(CCCC)S(=O)(=O)c1ccc2oc(C(=O)N3CCOCC3)c(C)c2c1` the Potency was inconclusive: 39.8 µM [inhibitor, partial curve]. `COc1cc(C(=S)N2CCOCC2)cc(OC)c1OC(=O)c1ccc([N+](=O)[O-])cc1[N+](=O)[O-]` was tested, and the Potency was inconclusive: 7.08 µM [inhibitor, partial curve]. `Cc1nn2c(C)c(C(=O)NC(C)c3ccccc3)cnc2c1-c1ccc(F)cc1` (stereo not given) was tested, and the “activity change, negative = displacement” value was inactive: -4.11%. `CC(C)(C)CC(=O)NCCc1csc(-c2ccccc2)n1` was tested, and the Potency was inconclusive: 22.4 µM [inhibitor, partial curve, poor fit]. `CCOC(=O)c1[nH]c(C=O)c(C(=O)OCC)c1C` was tested, and the Potency was inconclusive: 11.2 µM [inhibitor, partial curve]. For `O=C(NC12CC3CC(CC(C3)C1)C2)c1ccc(=O)oc1`, the Potency was inconclusive: 0.794 µM [inhibitor, partial curve, poor fit]. For `CCC(=O)N1CCCc2cc(S(=O)(=O)N3CCC(C(=O)NCc4ccc(F)cc4)CC3)ccc21`, the “activity change, negative = displacement” value was inactive: 49.9%. `COC(=O)CSc1nc(Cc2ccccc2)nc2ccccc12` was tested, and the Potency was inconclusive: 31.6 µM [inhibitor, partial curve]. `CC1Cc2ccccc2N1C(=O)CSc1nn2c(=O)c(C(C)(C)C)nnc2s1` (stereo not given) was tested, and the Potency was inconclusive: 25.1 µM [inhibitor, partial curve]. With `O=c1[nH]ncn1-c1cccc(C(F)(F)F)c1` the Potency was inconclusive: 50.1 µM [inhibitor, single point].

— PubChem BioAssay AID485281 (National Center for Advancing Translational Sciences (NCATS), 2010)
% is set by controls: 0 for no effect and ±100 for the full control effect; potency is the fitted concentration of half-maximal effect; tags give direction and shape of the fitted curve.
Note: nearly all actives have a fitted effect of over 20% in size.
